Data as given in publication PMC4336329 (PLoS ONE, 2015).
The whole screen tested about 310,000 compounds, of which about 2,200 (0.71%) showed an effect of 50% or more. The effect is printed as a negative number. The list shows a part of the results.

The compounds below were run against human ether-à-go-go-related gene (hERG) potassium channel (human, UniProt Q12809) (assay: primary screen, population patch clamp on CHO cells stably expressing hERG).
Chain of human ether-à-go-go-related gene (hERG) potassium channel (Q12809 whole entry, looked up): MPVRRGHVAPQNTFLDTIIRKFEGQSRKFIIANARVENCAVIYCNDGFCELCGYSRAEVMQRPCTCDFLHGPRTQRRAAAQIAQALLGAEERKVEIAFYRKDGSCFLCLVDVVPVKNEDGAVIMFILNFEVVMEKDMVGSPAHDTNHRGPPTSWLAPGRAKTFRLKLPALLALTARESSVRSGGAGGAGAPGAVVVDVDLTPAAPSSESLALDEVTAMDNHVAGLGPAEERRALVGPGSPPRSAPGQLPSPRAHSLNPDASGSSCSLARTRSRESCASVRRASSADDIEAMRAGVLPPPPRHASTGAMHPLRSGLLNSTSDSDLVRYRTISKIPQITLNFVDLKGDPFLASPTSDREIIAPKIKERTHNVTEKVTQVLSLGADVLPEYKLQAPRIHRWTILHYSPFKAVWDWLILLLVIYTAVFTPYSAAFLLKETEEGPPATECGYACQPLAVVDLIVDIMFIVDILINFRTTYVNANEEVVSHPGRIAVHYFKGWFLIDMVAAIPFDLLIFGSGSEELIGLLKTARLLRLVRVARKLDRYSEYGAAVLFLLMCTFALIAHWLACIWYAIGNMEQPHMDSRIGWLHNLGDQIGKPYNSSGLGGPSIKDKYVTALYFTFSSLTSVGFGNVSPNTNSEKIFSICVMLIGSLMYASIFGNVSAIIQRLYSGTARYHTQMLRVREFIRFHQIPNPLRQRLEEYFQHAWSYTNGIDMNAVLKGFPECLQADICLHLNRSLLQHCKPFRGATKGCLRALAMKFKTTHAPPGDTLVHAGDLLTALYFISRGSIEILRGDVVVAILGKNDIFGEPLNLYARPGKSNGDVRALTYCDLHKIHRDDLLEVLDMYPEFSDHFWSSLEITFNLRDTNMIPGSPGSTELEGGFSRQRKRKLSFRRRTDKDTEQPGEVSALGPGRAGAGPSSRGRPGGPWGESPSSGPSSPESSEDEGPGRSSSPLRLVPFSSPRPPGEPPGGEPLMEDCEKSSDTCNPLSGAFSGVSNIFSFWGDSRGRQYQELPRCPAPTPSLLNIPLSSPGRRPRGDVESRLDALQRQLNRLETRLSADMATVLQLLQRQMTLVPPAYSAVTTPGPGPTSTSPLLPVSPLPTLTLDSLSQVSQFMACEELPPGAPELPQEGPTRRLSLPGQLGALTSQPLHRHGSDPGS

| SMILES | hERG current change (%, negative = inhibition) at 1uM [%] |
| --- | --- |
| O=C(C1CC1)N1CCc2cc(S(=O)(=O)NC3CCN(Cc4ccccc4)CC3)ccc21 | 10 |
| COCCOC(=O)C1=C(N)Oc2c(c(=O)oc3ccccc23)C1c1ccncc1 (stereo not drawn) | -4.55 |
| Oc1ccc(Br)cc1-c1cc(-c2ccccc2F)[nH]n1 | 5.79 |
| CN(C)c1ccc(C=NCC2COc3ccccc3O2)cc1 (stereo not drawn) | 21.7 |
| O=c1c2[nH]c3cccc(Cl)c3c2ncn1CCN1CCCCC1 | 2.61 |
| COc1ccc(CCNC(=O)CNS(=O)(=O)c2ccc(N(C)C)c([N+](=O)[O-])c2)cc1OC | 8.96 |
| COc1cc(C2CC(=O)C=C(O)C2)cc(OC)c1OC (stereo not drawn) | 22.1 |
| CCn1c(=O)c(C(=O)NCCN2CCCCC2)c(O)c2ccccc21.Cl | -3.9 |
| CCOC(=O)C1=C(C)NC(=O)NC1c1cccc(OC)c1OCc1ccccc1Cl (stereo not drawn) | 7 |
| CC(C)=CCCC(C)CN1CCC(N2CCC(C(=O)N3CCOCC3)CC2)CC1 (stereo not drawn) | -8.77 |
| COc1ccc(Br)cc1/C=N/Nc1ccccn1 | 13.5 |
| CCn1cc(C(=O)O)c(=O)c2cc(F)c(N3CCN(C(=S)NC(=O)c4ccccc4C)CC3)cc21 | 2.25 |
| Cc1ccc(NC(=O)C2CCN(S(=O)(=O)c3ccc4c(c3)NC(=O)C(C)S4)CC2)cc1Cl (stereo not drawn) | 11.8 |
| N#CCCN(Cc1ccccc1)C(=O)c1nccnc1C(=O)O | 11.8 |
| COc1ccc(NC(=O)c2cc(-c3ccc4c(c3)OCO4)on2)cc1 | 10.8 |
| Cc1ccc(C(=O)Nc2ccc(N3CCOCC3)cc2)cc1S(=O)(=O)N1CCCCC1 | 7.22 |
| O=C(NCc1ccc(Cl)cc1Cl)C1CCN(S(=O)(=O)c2ccc3c(c2)OCCCO3)CC1 | 3.3 |
| O=C(COc1c(F)c(F)c(C(F)(F)F)c(F)c1F)Nc1ccc(N2CCOCC2)c(Cl)c1 | 13.5 |
| C#CCN1C(=O)C(O)(CC(=O)c2cc(OC)ccc2OC)c2ccccc21 (stereo not drawn) | 11.7 |
| COc1ccc(C(O)(C2CCCCC2)C(CN2CCCC2)c2ccccc2)cc1.Cl (stereo not drawn) | 3.48 |
| O=C(N[C@@H](Cc1ccccc1)C(=O)NC1CCCCC1)c1ccco1 | 12.7 |

| SMILES | hERG current change (%, negative = inhibition) at 1uM [%] |
| --- | --- |
| Cc1ccc(N=c2c([N+](=O)[O-])nn(-c3ccc4c(c3)OCCO4)n2O)cc1F | 5.64 |
| CC(C)CCNC(=O)CN(CCCN1CCOCC1)C(=O)Cn1nnc(-c2ccc(F)cc2)n1 | 2.06 |
| CCOc1ccc(Br)cc1S(=O)(=O)N1CCCC1 | 0.606 |
| O=C1c2ccccc2-c2nc3ccccc3n21 | 10.5 |
| Cc1ccc2nc(-c3ccc(NS(=O)(=O)c4c(C)n(C)c(=O)n(C)c4=O)cc3)sc2c1 | 6.05 |
| O=C(Cn1c(COc2ccc(Cl)cc2)nc2ccccc21)NCC(F)(F)F | 18.5 |
| Clc1ccc(-n2cc(-c3ccc(Br)cc3)[n+]3c2CCCCC3)cc1.[Br-] | -4.15 |
| CCOc1ccc(N(C)S(=O)(=O)c2ccc3[nH]cc(C(=O)NCC(OC)OC)c(=O)c3c2)cc1 | 8.98 |
| CC(C)(C)C(=O)NC(=S)Nc1sc2c(c1C#N)CCCCC2 | 10.6 |
| CC1(C)Cc2c(cnn2-c2ccccc2)C(NC(=O)CCN2CCCC2=O)C1 (stereo not drawn) | 14.2 |
| COC(=O)/C(=C/c1ccc2c(c1)c1ccccc1n2C)NC(=O)c1ccccc1 | 8.23 |
| CCOc1ccccc1NC(=O)CSc1nnc2ccc(-c3ccncc3)nn12 | -5.75 |
| NC(=O)c1nsc(C(=O)N(CCc2ccccc2)C(C(=O)NC2CCCC2)c2ccco2)c1N (stereo not drawn) | 1.24 |
| Nn1c(COc2ccccc2)nnc1SCc1cc(=O)[nH]c2ccccc12 | -5.08 |
| COc1ccc(N2CCN(Cc3cc(=O)oc4cc5c(cc34)CCCC5)CC2)cc1 | 7.51 |
| Cc1c(C(=O)NNC(=S)Nc2cccc(Cl)c2)nnn1-c1ccccc1 | 1.39 |
| CCCCn1c(N)c(N(CCOC)C(=O)c2sc3cc(F)ccc3c2Cl)c(=O)[nH]c1=O | 1.16 |
| O=c1cc(O)c2sc(Nc3ccc(F)c(Cl)c3)nc2[nH]1 | 29.7 |
| CCOc1cc(NC(=O)c2ccco2)c(OCC)cc1NC(=O)COc1ccccc1 | 10.9 |
| O=C(c1ccccc1)C1Oc2ccccc2C2CC(c3cccs3)=NN12 (stereo not drawn) | 7.35 |
| Cc1ccccc1C(=O)NCC(=O)OCCOc1ccc(C(C)C)c(C)c1 | 9.24 |

| SMILES | hERG current change (%, negative = inhibition) at 1uM [%] |
| --- | --- |
| N#CCCn1cc(C(=O)N2CCOCC2)c(-c2ccc3c(c2)OCCO3)n1 | 6.82 |
| CCCCCCCC(O)CC(CC1CCCCC1)C(=O)NN (stereo not drawn) | 5.39 |
| COc1ccc(NC(=O)c2c3c(nc4ccccc24)CCN(Cc2ccccc2)C3)c(OC)c1 | -0.95 |
| CC1CCCN(C(=O)c2cn(-c3ccccc3)nc2-c2cccnc2)C1 (stereo not drawn) | 5.87 |
| Cc1ccc(NC(=O)NCCN2CCN(c3ccccc3)CC2)cc1Cl | 11.7 |
| C/C(=N\OC(=O)c1cccc(Cl)c1)c1sc(C)nc1C | 13.5 |
| CN(C)CCNC(=O)C(=O)NCC1OCCN1S(=O)(=O)c1ccc2c(c1)OCCO2 (stereo not drawn) | 10.5 |
| Cc1cc(NS(=O)(=O)c2ccc(NC(=O)C(c3ccccc3)c3ccccc3)cc2)no1 | 0.758 |
| CCN(CC)C(=O)Cn1cc(C(=O)C(=O)N(CC)C2CCCCC2)c2ccccc21 | 0.97 |
| Cc1ccc(C)c(NC(=O)c2nnn(Cc3ccccc3)c2N)c1 | 0.176 |
| CC(NC(=O)Cc1ccc(S(=O)(=O)N2CCCCC2)cc1)c1ccccc1 (stereo not drawn) | 10.6 |
| O=c1nc2scc(-c3ccccc3)n2c2ccccc12 | 11.5 |
| Cn1cc(-c2nc3ccccc3[nH]2)c2ccccc21 | 1.18 |
| CC(C)(C)NC(=O)c1ccc2c(c1)N(CC(=O)N1CCCCC1)C(=O)C(C)(C)O2 | 14.3 |
| Cc1ccc(C(C)C)c(OCC(=O)OCc2c(C)noc2C)c1 | 10.8 |
| O=C(COc1cccnc1[N+](=O)[O-])Nc1ccc(N2CCOCC2)cc1 | 8.5 |
| CCCCOCC(O)Cn1c(C)nc2ccccc21.O=C(O)C(=O)O (stereo not drawn) | 7.83 |
| C=CCN1c2ccccc2[C@]23C[C@@H](C(=O)OC)N(C(=O)c4ccc(Br)cc4)C2=NC(C(=O)OC)=C(C(=O)OC)[C@H]13 | 6.14 |
| CSc1ccccc1OCc1cc(C(=O)NCCCc2ccccc2)no1 | 19 |
| COc1cccc(CCNCc2ccc(SC)cc2)c1.O=C(O)C(=O)O | -19.5 |
| CCOC(=O)c1c(-c2ccc(-c3ccccc3)cc2)csc1NC(=O)c1cccc(N2C(=O)CCC2=O)c1 | 7.58 |

| SMILES | hERG current change (%, negative = inhibition) at 1uM [%] |
| --- | --- |
| Cc1ccc(C(=O)N(Cc2ccc3c(c2)OCO3)Cc2nc3ccccc3c(=O)[nH]2)cc1 | 8.32 |
| COC(=O)C1=C(CS(=O)(=O)c2cc(Cl)ccc2OC)NC(=O)NC1c1ccc(O)c(OC)c1 (stereo not drawn) | 16.9 |
| O=S(=O)(NCCn1ccc2ccccc21)c1ccccc1 | -12.6 |
| CC1CCc2nc(NC(=O)CN3CCN(Cc4ccc5c(c4)OCO5)CC3)sc2C1 (stereo not drawn) | -6.64 |
| COC(=O)c1cccc(C(=O)Nc2ccc(C)cc2)n1 | 9.98 |
| O=C(NC1CC1)C1CCN(S(=O)(=O)c2ccc(Cl)cc2)CC1 | 13.2 |
| CCN(C(=O)Cc1cccs1)c1nnc(-c2cccnc2)s1 | 3.69 |
| CC(OC(=O)COc1ccc(Nc2ccccc2)cc1)C(=O)N(C)c1ccccc1 (stereo not drawn) | 15.1 |
| COc1cccc(NC(=O)CN(C)C(=O)CCc2nc3sc4c(c3c(=O)[nH]2)CCCC4)c1 | 6.77 |
| CCOc1ccc(CN(C)C(=O)c2ccc(=O)[nH]c2)cc1 | 12.9 |
| Cc1ccc(NC(=O)c2cc3c(s2)CCCC3)cc1S(=O)(=O)Nc1ccccc1Cl | 7.04 |
| CCOC(=O)CCNC(=O)N1CCCC(N2CCN(c3ccc(OC)cc3)CC2)C1 (stereo not drawn) | 16.4 |
| Cn1cc(/C=C(\NC(=O)c2ccccc2Cl)C(=O)NCCCN2CCOCC2)c2ccccc21 | 17.5 |
| CNc1c(N=Cc2cccnc2)c(=O)n(C)c(=O)n1C | 11.9 |
| CCCC(=O)NCCc1nc2ccccc2n1C | 17.6 |
| CC(C)n1ncc2c(C(=O)N3CCN(c4ccccc4)CC3)cc(-c3ccccc3)nc21 | 19.3 |
| CCCOc1ccc(C2c3c(oc4cc(C)c(C)cc4c3=O)C(=O)N2CCCN(C)C)cc1 (stereo not drawn) | -8.32 |
| CCn1c(=O)cc(OCC(=O)NCc2cccs2)c2ccccc21 | 6.29 |
| COc1ccc(NS(=O)(=O)c2cccc(C(=O)NCC3(N4CCCCC4)CCCCC3)c2)cc1 | -4.37 |
| CCN(CCO)C(=S)Nc1cc(C(=O)OC)ccc1C(=O)OC | -12.8 |
| CCOc1ccc2nc(N3CCCC(C(=O)NCCCN4CCOCC4)C3)sc2c1 (stereo not drawn) | -1.79 |
